Measurements published in the supplement of paper PMC7335073.
In all, about 4,100 sequences were measured (“relative CpG methylation activity (normalised to average over all NNNCGNNN flanks)”: median about 0.94, highest 2% from about 1.9 on). This is one part of the list.

target: DNMT3B catalytic domain (mouse) (UniProt O88509); assay: relative CpG methylation activity (normalised to average over all NNNCGNNN flanks) (relative (1 = mean)); higher = more methylation of the central CpG; conditions: system: in vitro, murine catalytic domain; CpG state: hemimethylated substrate pool; residues: 558-859
UniProt O88509, sequence (O88509 558-859): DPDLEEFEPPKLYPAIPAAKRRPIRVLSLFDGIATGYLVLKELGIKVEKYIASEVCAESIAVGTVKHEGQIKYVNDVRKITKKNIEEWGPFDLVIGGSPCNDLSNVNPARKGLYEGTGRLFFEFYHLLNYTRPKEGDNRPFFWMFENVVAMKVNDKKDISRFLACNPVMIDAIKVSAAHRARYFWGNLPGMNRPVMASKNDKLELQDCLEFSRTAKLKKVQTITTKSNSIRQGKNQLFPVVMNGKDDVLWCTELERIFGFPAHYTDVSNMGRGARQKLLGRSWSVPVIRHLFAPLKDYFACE
Procedure, shortened: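 Each experiment was done in two independent repeats, using pooled dsDNA substrates with a central CpG flanked by 10 random nucleotides, methylated for 60 min at 37 °C by the murine DNMT3A or DNMT3B catalytic domain with 0.8 mM S-adenosyl-L-methionine in HEPES pH 7.5 buffer. After bisulfite conversion and PCR, the DNA was read by Illumina sequencing. Methylation was averaged per context, defined by three bases on each side of the CpG. Relative methylation activity is each context's average methylation over the mean of all contexts.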

Sequence	relative CpG methylation activity
ACCCGCCG	0.82
CCGCGTAC	0.89
AATCGAGC	1.85
CACCGGAA	0.647
CACCGATG	1.19
CTTCGGGC	2.18
GTGCGGAG	0.588
GATCGTGG	0.219
TTGCGACG	1.27
GCACGATA	1.45
TGTCGAGT	1.05
CATCGGAC	1.02
TGGCGGAG	0.487
TGGCGCTG	0.26
CACCGTCC	0.794
AATCGCCG	0.91
AAGCGACA	0.795
GACCGGTG	0.741
TTACGAAT	1.76
ATACGATG	1.63
GAGCGAGC	0.934
GATCGCTG	0.405

Sequence	relative CpG methylation activity
TGCCGGCG	1.03
CCTCGACT	1.22
CTCCGAAC	1.87
CCCCGTTG	0.456
CGTCGACA	1.23
TCCCGAAC	1.57
TGGCGGTA	0.386
ATCCGGTT	1.46
TAGCGAAC	0.912
TACCGAGC	1.53
GTGCGCGC	1.06
CAACGTTC	1.08
AGGCGACG	0.67
GTGCGCTT	1.14
TGACGGTT	0.917
TGGCGTGG	0.136
TTCCGCAG	0.808
CGCCGCAT	0.251
CGGCGGTT	0.459
GACCGCCG	0.483
TAACGTGA	0.575
GACCGCAT	0.313

Sequence	relative CpG methylation activity
GTCCGGCG	1.76
AACCGTAG	0.152
TCGCGACG	0.833
AGACGCCC	1.46
TCCCGAGT	1.34
CTGCGATA	1.22
GTTCGCTT	0.867
CCGCGCTT	0.819
AAACGTGT	0.636
ATTCGAGT	1.28
TGACGCAC	0.811
GCTCGATG	1
TTTCGTAA	0.65
ACGCGGTC	1.14
GCACGCTT	1.05
ATCCGTTC	0.92
TGCCGCGC	0.424
GCGCGTAT	0.946
AATCGATA	1.62
GCGCGGTG	0.568
CAGCGTGC	0.439
CTTCGGTT	1.72

Sequence	relative CpG methylation activity
CGCCGTTT	0.236
AATCGGCG	1.6
TGTCGGGC	1.48
GCACGAAC	1.39
GCGCGTTT	0.478
TAACGTGG	0.473
GTCCGTTA	0.801
TCGCGAAT	0.679
TTCCGGAC	1.57
TTGCGTGG	0.257
CGACGTCG	0.941
AGTCGTAT	0.304
TCCCGCCT	1.02
CTGCGTGC	0.956
AGGCGCAC	0.425
GATCGTAT	0.543
ATCCGCTT	1.12
CTCCGCAG	0.55
ATACGTGG	0.556
GGGCGGCC	0.89
